{"source": "the supplement of paper PMC8728848", "binders": {"B1": {"name": "PV12658A-bvu-496-32-496 (Bacteroides vulgatus) (protein)", "chain": "DLDGAITTPAAVELALNGIYYSLPGNGFNVIFPTVSGSFKAGTMWRQEIVSAGNAVYYSERMLPTLSFSDATEWDADYAVIKNANFLETACNRMSDGEFSGNRRAEVLGEIAYLRALAYFNILVRYCEFWDMNSEYGVVMRNEAPSVSNALKARSSVADSYQYILDQLEIAIEKAPDWKKLSQASKEAAKALKARVLLYAGKYTEAVAAVNDAIDTNSPLPEANYGDVFDKFSTTKEILFARVFDQKDATNTSTRQQCYGNSPTKKQGYWGPTNEYVELVGDDPRADAIFSKVDSLMDSRSSAVAYNLKSVKKLLNDANDMPVIFSRVSELYLIKAEALYRSGASISEAYAPIRKLRERAGAEIILPANNEELETAIFNEWMLELSFENWHEWFAMIRFAGYTEKPDFTRLLALNKTLREALEKEYEKSEAQGDNYYQRIIDRRIDAIPSSEISSNLECKQNPGY"}}, "experiment_in_all_cases": "glycan array binding signal (z-score within array); higher = stronger binding", "conditions_in_all_cases": "glycan notation: IUPAC condensed, linker removed", "key": {"[1]": {"molecular_target": "Neu5Ac(a2-3)Gal(b1-3)GalNAc", "method_in_brief": "(§1)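 The binding signal is a Z-score computed within each array. Data were drawn from 3228 arrays in the Consortium for Functional Glycomics database, restricted to those with a known protein sequence. Scores were averaged over arrays of the same protein sequence at different concentrations or buffers, and over linkers, and negative values can be taken as non-binding.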"}, "[2]": {"molecular_target": "Neu5Ac(a2-3)Gal(b1-3)GalNAc(b1-3)Gal(a1-4)Gal(b1-4)Glc", "method_in_brief": "as §1"}, "[3]": {"molecular_target": "Neu5Ac(a2-3)Gal(b1-3)GalNAc(b1-4)[Neu5Ac(a2-3)]Gal(b1-4)Glc", "method_in_brief": "as §1"}, "[4]": {"molecular_target": "Neu5Ac(a2-3)Gal(b1-3)GalNAc(b1-4)[Neu5Ac(a2-8)Neu5Ac(a2-3)]Gal(b1-4)Glc", "method_in_brief": "as §1"}, "[5]": {"molecular_target": "Neu5Ac(a2-3)Gal(b1-3)GalNAc6S", "method_in_brief": "as §1"}, "[6]": {"molecular_target": "Neu5Ac(a2-3)Gal(b1-3)GlcNAc", "method_in_brief": "as §1"}, "[7]": {"molecular_target": "Neu5Ac(a2-3)Gal(b1-3)GlcNAc(b1-2)Man", "method_in_brief": "as §1"}, "[8]": {"molecular_target": "Neu5Ac(a2-3)Gal(b1-3)GlcNAc(b1-2)Man(a1-3)[GlcNAc(b1-4)][Neu5Ac(a2-3)Gal(b1-3)GlcNAc(b1-2)Man(a1-6)]Man(b1-4)GlcNAc(b1-4)GlcNAc", "method_in_brief": "as §1"}, "[9]": {"molecular_target": "Neu5Ac(a2-3)Gal(b1-3)GlcNAc(b1-2)Man(a1-3)[Neu5Ac(a2-3)Gal(b1-3)GlcNAc(b1-2)Man(a1-6)]Man(b1-4)GlcNAc(b1-4)GlcNAc", "method_in_brief": "as §1"}, "[10]": {"molecular_target": "Neu5Ac(a2-3)Gal(b1-3)GlcNAc(b1-3)Gal(b1-3)GlcNAc", "method_in_brief": "as §1"}, "[11]": {"molecular_target": "Neu5Ac(a2-3)Gal(b1-3)GlcNAc(b1-3)Gal(b1-4)GlcNAc", "method_in_brief": "as §1"}, "[12]": {"molecular_target": "Neu5Ac(a2-3)Gal(b1-3)GlcNAc(b1-3)GalNAc", "method_in_brief": "as §1"}, "[13]": {"molecular_target": "Neu5Ac(a2-3)Gal(b1-3)GlcNAc(b1-4)Gal(b1-4)Glc", "method_in_brief": "as §1"}, "[14]": {"molecular_target": "Neu5Ac(a2-3)Gal(b1-3)GlcNAc(b1-6)GalNAc", "method_in_brief": "as §1"}, "[15]": {"molecular_target": "Neu5Ac(a2-3)Gal(b1-3)GlcNAc6S", "method_in_brief": "as §1"}, "[16]": {"molecular_target": "Neu5Ac(a2-3)Gal(b1-3)[Fuc(a1-4)]GlcNAc", "method_in_brief": "as §1"}, "[17]": {"molecular_target": "Neu5Ac(a2-3)Gal(b1-3)[Fuc(a1-4)]GlcNAc(b1-3)Gal(b1-3)[Fuc(a1-4)]GlcNAc", "method_in_brief": "as §1"}, "[18]": {"molecular_target": "Neu5Ac(a2-3)Gal(b1-3)[Fuc(a1-4)]GlcNAc(b1-3)Gal(b1-4)[Fuc(a1-3)]GlcNAc", "method_in_brief": "as §1"}, "[19]": {"molecular_target": "Neu5Ac(a2-3)Gal(b1-3)[GlcNAc(b1-6)]GalNAc", "method_in_brief": "as §1"}, "[20]": {"molecular_target": "Neu5Ac(a2-3)Gal(b1-3)[Neu5Ac(a2-6)]GalNAc", "method_in_brief": "as §1"}, "[21]": {"molecular_target": "Neu5Ac(a2-3)Gal(b1-3)[Neu5Ac(a2-6)]GlcNAc(b1-3)[Fuc(a1-3)[Gal(b1-4)]GlcNAc(b1-6)]Gal(b1-4)Glc", "method_in_brief": "as §1"}, "[22]": {"molecular_target": "Neu5Ac(a2-3)Gal(b1-3)]Neu5Ac(a2-3)Gal(b1-4)]GlcNAc", "method_in_brief": "as §1"}, "[23]": {"molecular_target": "Neu5Ac(a2-3)Gal(b1-4)Glc", "method_in_brief": "as §1"}, "[24]": {"molecular_target": "Neu5Ac(a2-3)Gal(b1-4)GlcNAc", "method_in_brief": "as §1"}, "[25]": {"molecular_target": "Neu5Ac(a2-3)Gal(b1-4)GlcNAc(b1-2)Man", "method_in_brief": "as §1"}, "[26]": {"molecular_target": "Neu5Ac(a2-3)Gal(b1-4)GlcNAc(b1-2)Man(a1-3)[GlcNAc(b1-4)][Neu5Ac(a2-3)Gal(b1-4)GlcNAc(b1-2)Man(a1-6)]Man(b1-4)GlcNAc(b1-4)GlcNAc", "method_in_brief": "as §1"}, "[27]": {"molecular_target": "Neu5Ac(a2-3)Gal(b1-4)GlcNAc(b1-2)Man(a1-3)[Neu5Ac(a2-3)Gal(b1-4)GlcNAc(b1-2)Man(a1-6)]Man(b1-4)GlcNAc(b1-4)GlcNAc", "method_in_brief": "as §1"}, "[28]": {"molecular_target": "Neu5Ac(a2-3)Gal(b1-4)GlcNAc(b1-2)Man(a1-3)[Neu5Ac(a2-3)Gal(b1-4)GlcNAc(b1-2)Man(a1-6)]Man(b1-4)GlcNAc(b1-4)[Fuc(a1-6)]GlcNAc", "method_in_brief": "as §1"}, "[29]": {"molecular_target": "Neu5Ac(a2-3)Gal(b1-4)GlcNAc(b1-2)Man(a1-3)[Neu5Ac(a2-6)Gal(b1-4)GlcNAc(b1-2)Man(a1-6)]Man(b1-4)GlcNAc(b1-4)GlcNAc", "method_in_brief": "as §1"}, "[30]": {"molecular_target": "Neu5Ac(a2-3)Gal(b1-4)GlcNAc(b1-2)[Neu5Ac(a2-3)Gal(b1-4)GlcNAc(b1-4)]Man(a1-3)[GlcNAc(b1-4)][Neu5Ac(a2-3)Gal(b1-4)GlcNAc(b1-2)[Neu5Ac(a2-3)Gal(b1-4)GlcNAc(b1-6)]Man(a1-6)]Man(b1-4)GlcNAc(b1-4)GlcNAc", "method_in_brief": "as §1"}, "[31]": {"molecular_target": "Neu5Ac(a2-3)Gal(b1-4)GlcNAc(b1-2)[Neu5Ac(a2-3)Gal(b1-4)GlcNAc(b1-4)]Man(a1-3)[GlcNAc(b1-4)][Neu5Ac(a2-3)Gal(b1-4)GlcNAc(b1-4)Man(a1-6)]Man(b1-4)GlcNAc(b1-4)GlcNAc", "method_in_brief": "as §1"}, "[32]": {"molecular_target": "Neu5Ac(a2-3)Gal(b1-4)GlcNAc(b1-2)[Neu5Ac(a2-3)Gal(b1-4)GlcNAc(b1-6)]Man(a1-6)[Neu5Ac(a2-3)Gal(b1-4)GlcNAc(b1-2)Man(a1-3)]Man(b1-4)GlcNAc(b1-4)GlcNAc", "method_in_brief": "as §1"}, "[33]": {"molecular_target": "Neu5Ac(a2-3)Gal(b1-4)GlcNAc(b1-2)[Neu5Ac(a2-3)Gal(b1-4)GlcNAc(b1-6)]Man(a1-6)[Neu5Ac(a2-3)Gal(b1-4)GlcNAc(b1-2)Man(a1-3)][GlcNAc(b1-4)]Man(b1-4)GlcNAc(b1-4)GlcNAc", "method_in_brief": "as §1"}, "[34]": {"molecular_target": "Neu5Ac(a2-3)Gal(b1-4)GlcNAc(b1-3)Gal", "method_in_brief": "as §1"}, "[35]": {"molecular_target": "Neu5Ac(a2-3)Gal(b1-4)GlcNAc(b1-3)Gal(b1-3)GlcNAc", "method_in_brief": "as §1"}, "[36]": {"molecular_target": "Neu5Ac(a2-3)Gal(b1-4)GlcNAc(b1-3)Gal(b1-4)GlcNAc", "method_in_brief": "as §1"}, "[37]": {"molecular_target": "Neu5Ac(a2-3)Gal(b1-4)GlcNAc(b1-3)Gal(b1-4)GlcNAc(b1-2)Man(a1-3)[Neu5Ac(a2-3)Gal(b1-4)GlcNAc(b1-3)Gal(b1-4)GlcNAc(b1-2)Man(a1-6)]Man(b1-4)GlcNAc(b1-4)GlcNAc", "method_in_brief": "as §1"}}, "note": "The list shows a part of the results."}
{"binder": "B1", "values": [{"measurement": "glycan array binding signal (z-score)", "setting": "[1]", "value": -0.233}, {"measurement": "glycan array binding signal (z-score)", "setting": "[2]", "value": -0.556}, {"measurement": "glycan array binding signal (z-score)", "setting": "[3]", "value": 0.026}, {"measurement": "glycan array binding signal (z-score)", "setting": "[4]", "value": -0.344}, {"measurement": "glycan array binding signal (z-score)", "setting": "[5]", "value": -0.469}, {"measurement": "glycan array binding signal (z-score)", "setting": "[6]", "value": -0.343}, {"measurement": "glycan array binding signal (z-score)", "setting": "[7]", "value": 0.22}, {"measurement": "glycan array binding signal (z-score)", "setting": "[8]", "value": -0.433}, {"measurement": "glycan array binding signal (z-score)", "setting": "[9]", "value": 0.621}, {"measurement": "glycan array binding signal (z-score)", "setting": "[10]", "value": -0.549}, {"measurement": "glycan array binding signal (z-score)", "setting": "[11]", "value": -0.366}, {"measurement": "glycan array binding signal (z-score)", "setting": "[12]", "value": -0.374}, {"measurement": "glycan array binding signal (z-score)", "setting": "[13]", "value": -0.434}, {"measurement": "glycan array binding signal (z-score)", "setting": "[14]", "value": -0.138}, {"measurement": "glycan array binding signal (z-score)", "setting": "[15]", "value": 0.152}, {"measurement": "glycan array binding signal (z-score)", "setting": "[16]", "value": -0.194}, {"measurement": "glycan array binding signal (z-score)", "setting": "[17]", "value": -0.275}, {"measurement": "glycan array binding signal (z-score)", "setting": "[18]", "value": -0.107}, {"measurement": "glycan array binding signal (z-score)", "setting": "[19]", "value": -0.549}, {"measurement": "glycan array binding signal (z-score)", "setting": "[20]", "value": -0.182}, {"measurement": "glycan array binding signal (z-score)", "setting": "[21]", "value": -0.429}, {"measurement": "glycan array binding signal (z-score)", "setting": "[22]", "value": -0.229}, {"measurement": "glycan array binding signal (z-score)", "setting": "[23]", "value": -0.191}, {"measurement": "glycan array binding signal (z-score)", "setting": "[24]", "value": -0.138}, {"measurement": "glycan array binding signal (z-score)", "setting": "[25]", "value": -0.265}, {"measurement": "glycan array binding signal (z-score)", "setting": "[26]", "value": -0.392}, {"measurement": "glycan array binding signal (z-score)", "setting": "[27]", "value": -0.385}, {"measurement": "glycan array binding signal (z-score)", "setting": "[28]", "value": 0.246}, {"measurement": "glycan array binding signal (z-score)", "setting": "[29]", "value": 0.084}, {"measurement": "glycan array binding signal (z-score)", "setting": "[30]", "value": -0.385}, {"measurement": "glycan array binding signal (z-score)", "setting": "[31]", "value": -0.362}, {"measurement": "glycan array binding signal (z-score)", "setting": "[32]", "value": -0.202}, {"measurement": "glycan array binding signal (z-score)", "setting": "[33]", "value": -0.314}, {"measurement": "glycan array binding signal (z-score)", "setting": "[34]", "value": 0.014}, {"measurement": "glycan array binding signal (z-score)", "setting": "[35]", "value": -0.31}, {"measurement": "glycan array binding signal (z-score)", "setting": "[36]", "value": -0.069}, {"measurement": "glycan array binding signal (z-score)", "setting": "[37]", "value": 0.962}]}
